Source: PubChem BioAssay AID504339 (National Center for Advancing Translational Sciences (NCATS), 2011)
The campaign covered roughly 390,000 compounds. About 17,000 (4.4%) were called active. The inconclusive results got no clear call from the source; some entries with a clear call stand among them for comparison. The call rests on the fitted dose curve; in most records, active means well fitted inhibition curve with a large enough effect; inconclusive means small, poorly fitted or top-dose-only effect; inactive means no such curve, though single readings can be large or run the other way. A potency beside an inconclusive call is a rough fit, not a confirmed value.

These compounds were tested against Lysine-specific demethylase 4A (Homo sapiens) (UniProt O75164) (assay: qHTS Assay for Inhibitors of JMJD2A-Tudor Domain). Settings: AlphaScreen JMJD2A-Tudor / H3K4me3 peptide binding; activity change, negative = inhibition: at 114 µM (top of the series).
Further: nearly all actives have a fitted effect of over 50% in size.
On the % scale 0 is the no-effect control and ±100 the full control effect; potency means the concentration at half of the fitted maximal effect; tags describe the fitted curve by direction and shape.

UniProt O75164, sequence (O75164 whole entry, looked up, the tested form may be a part): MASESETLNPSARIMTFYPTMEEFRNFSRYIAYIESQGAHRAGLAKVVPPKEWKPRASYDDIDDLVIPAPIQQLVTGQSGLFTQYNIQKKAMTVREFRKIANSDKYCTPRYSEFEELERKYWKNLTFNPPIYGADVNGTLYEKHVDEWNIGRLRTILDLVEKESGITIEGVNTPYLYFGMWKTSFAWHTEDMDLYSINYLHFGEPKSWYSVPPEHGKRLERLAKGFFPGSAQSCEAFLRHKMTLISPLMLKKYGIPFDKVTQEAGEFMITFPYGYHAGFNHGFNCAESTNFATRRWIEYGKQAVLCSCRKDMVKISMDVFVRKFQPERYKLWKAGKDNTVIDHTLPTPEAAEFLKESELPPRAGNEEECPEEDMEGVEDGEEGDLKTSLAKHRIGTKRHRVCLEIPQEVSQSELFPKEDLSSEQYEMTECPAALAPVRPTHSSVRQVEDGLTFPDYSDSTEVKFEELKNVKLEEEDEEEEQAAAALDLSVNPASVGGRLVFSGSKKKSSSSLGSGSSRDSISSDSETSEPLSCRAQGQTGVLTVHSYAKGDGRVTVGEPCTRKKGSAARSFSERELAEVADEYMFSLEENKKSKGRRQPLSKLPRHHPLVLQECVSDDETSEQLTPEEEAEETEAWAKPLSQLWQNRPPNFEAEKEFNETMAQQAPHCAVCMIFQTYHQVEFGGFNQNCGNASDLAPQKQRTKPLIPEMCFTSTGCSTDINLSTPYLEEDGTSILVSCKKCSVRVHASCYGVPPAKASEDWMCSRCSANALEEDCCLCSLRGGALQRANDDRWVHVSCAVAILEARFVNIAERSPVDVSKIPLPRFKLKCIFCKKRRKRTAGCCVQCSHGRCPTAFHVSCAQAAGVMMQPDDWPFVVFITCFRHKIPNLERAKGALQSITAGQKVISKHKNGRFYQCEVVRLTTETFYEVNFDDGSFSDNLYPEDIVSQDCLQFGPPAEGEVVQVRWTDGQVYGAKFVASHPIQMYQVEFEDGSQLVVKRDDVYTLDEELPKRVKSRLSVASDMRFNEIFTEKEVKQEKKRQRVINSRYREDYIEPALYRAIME

Potency, active:
COc1ccc(-c2nc(C)sc2C)cc1 31.6 µM
CC1(C)CC(=O)C2=C(C1)NC1=C(C(=O)c3ccccc31)C2c1ccc(Cl)cc1 (configuration not stated) 15.8 µM
OC1CCCN(CC(O)c2ccccc2)C1 (configuration not stated) 39.8 µM
O=C(CCCn1c(=S)[nH]c2ccccc2c1=O)N1CCCCC1 56.2 µM
CCn1c(-c2c[nH]c3ccccc23)n[nH]c1=S 3.98 µM
COCC(C)NCc1cccc([N+](=O)[O-])c1 (configuration not stated) 3.16 µM
Brc1cccc(CN2CCN(c3ncccn3)CC2)c1 20 µM
COc1ccc(C=O)c(OCc2cn(CC(=O)c3ccc(O)cc3)nn2)c1 79.4 µM
Cc1nc2nc(CC(=O)O)[nH]n2c(=O)c1[N+](=O)[O-] 17.8 µM
CC1CCN(S(=O)(=O)c2ccc(NC(=O)CN3CCN(C)CC3)cc2)CC1 3.16 µM
O=C(/C=C/c1ccco1)c1cccc([N+](=O)[O-])c1 35.5 µM
Cc1nn(-c2ccccc2)c2c1C(c1ccc(Br)s1)C(C#N)=C(N)O2 (configuration not stated) 12.6 µM
CN(C)C1(CN=Cc2cc(Cl)cc([N+](=O)[O-])c2O)CCCCC1 39.8 µM
O=C(O)CC(CCc1ccccc1)OC1OC(CO)C(O)C(O)C1O (configuration not stated) 8.91 µM
Cn1c(CC(=O)Nc2ccccc2)n[nH]c1=S 5.01 µM
S=c1[nH]nc(-c2cc(-c3ccccc3)n[nH]2)n1/N=C/C(Br)=C/c1ccccc1 56.2 µM
COc1ccc2c(c1)Sc1ccccc1N2 39.8 µM
COc1ccc(C(=O)COC(=O)CN2CC(=O)Oc3ccccc32)cc1Br 35.5 µM
Cc1nnc(NC(=O)C2CCN(S(=O)(=O)c3ccc(F)c(Cl)c3)CC2)o1 3.55 µM
CCOc1cccc2sc(N(CCN(C)C)C(=O)c3cc4ccccc4cc3OC)nc12 44.7 µM
COc1ccc(C(=O)/C=C/c2cn(CC(O)CN3CCc4ccccc43)c3ccccc23)cc1 (configuration not stated) 22.4 µM
COCCCNC(=O)c1ccc2c3c(onc13)-c1ccccc1C2=O 50.1 µM
N#C/C(=N\Nc1cccc(C(F)(F)F)c1)C(=O)c1ccsc1 50.1 µM
COc1ccc(-c2cnc(SCC(=O)Nc3cc(C)on3)n2Cc2ccco2)cc1 50.1 µM

Potency, inactive:
CN(C)S(=O)(=O)c1ccc2c(c1)/C(=C/c1cc3c([nH]1)CCCC3)C(=O)N2
Cc1cc(NC(=O)CCC(=O)N(c2ccccc2F)C(C(=O)NC2CCCC2)c2ccccc2)no1 (configuration not stated)
CCC(=O)Oc1ccc(C2Nc3ccccc3-c3nnc(SC)nc3O2)cc1 (configuration not stated)
O=C(CNC(=O)c1ccc(Cl)cc1Cl)OCc1ccccc1
O=C1NC[C@H](Cc2ccccc2)N(CC2CCN(CC3CCCC3)CC2)C1=O
CN(C(=O)Cc1ccccc1OC(=O)c1ccccc1)c1ccccc1I
COc1ccccc1N1CCN(/N=C\c2ccc(C)o2)CC1
CCN(CC)C(=O)c1[nH]cnc1C(=O)NCC(=O)OC(C)(C)C
COc1cccc(C(=O)N(c2ccc(C)cc2)C2C=CS(=O)(=O)C2)c1 (configuration not stated)
O=C(NCCC1CCCC1)c1cccs1
CCOC(=O)N1CCN(Cc2nc3cc(NC(=O)c4cccc(C)c4)ccc3n2C(C)C)CC1
CCN(C(=O)C(C)Sc1nnc(-c2ccncc2)n1C)C1CCCCC1 (configuration not stated)
CN(C)c1ccc(N=Nc2ccc(S(N)(=O)=O)cc2)cc1
COC(=O)c1nnn(-c2ccc(Br)cc2)c1C(=O)OC

Potency, inconclusive:
CCN1C/C(=C/c2sccc2C)c2nc3ccccc3c(C(=O)O)c2C1 22.4 µM [inhibitor, partial curve, poor fit]
Cc1nc(N2CCCCC2)sc1C(=O)c1cccc([N+](=O)[O-])c1 39.8 µM [inhibitor, partial curve]
CN1C[C@@H]2C(c3ccccc3)C3(c4ccccc4)CC2(C3)[C@H]1c1ccccc1 (some centres not stated) 20 µM [inhibitor, full curve]
CCCN1C(=O)/C(=C/c2cc(C)n(C)c2C)SC1=Nc1ccc(OC)cc1 17.8 µM [inhibitor, full curve]
O=C(O)CCc1ccc(-c2ccc(Br)cc2)n1-c1ccc(O)cc1 22.4 µM [inhibitor, full curve, poor fit]
O=C1NC(=O)/C(=C\c2ccccc2OCc2ccc([N+](=O)[O-])cc2)N1 15.8 µM [inhibitor, partial curve]
Cc1ccc2cc(C(c3nnnn3Cc3ccccc3)N3CCN(c4ccccc4)CC3)c(=O)[nH]c2c1 (configuration not stated) 20 µM [inhibitor, full curve]
O=C(C=Cc1ccco1)c1ccc([N+](=O)[O-])cc1 6.31 µM [inhibitor, partial curve]
COCCN1C=C2C(=O)C(C)(OC(=O)CCC(=O)OC)C(=O)C(Br)=C2C=C1c1ccc(OC)cc1 (configuration not stated) 79.4 µM [inhibitor, partial curve]
COc1ccc(N2CCN(C(c3ccccc3F)c3sc4nc(-c5ccco5)nn4c3O)CC2)cc1 (configuration not stated) 50.1 µM [inhibitor, partial curve]
CCOC(=O)CSc1n[nH]c(-c2ccco2)n1 20 µM [inhibitor, full curve, poor fit]
CCOc1ccc(NC2=C(Cl)C(=O)N(C3CCCCC3)C2=O)cc1 35.5 µM [inhibitor, partial curve]
CN(C)c1ccc(CNC(=O)CN(C)S(=O)(=O)c2cccc3cccnc23)cc1 79.4 µM [inhibitor, single point]
Cc1cc(OCCN2CCCCC2)nc2ccccc12 31.6 µM [inhibitor, full curve, poor fit]
COc1ccc(NC2c3ccccc3C(=O)N2Cc2ccco2)cc1OC (configuration not stated) 44.7 µM [inhibitor, partial curve]
Cc1ncc(CO)c(/C=N/N=C/c2ccccc2O)c1O 6.31 µM [inhibitor, full curve, poor fit]
CC[n+]1cc(C)ccc1/C=C/c1ccc(N(C)C)cc1 14.1 µM [inhibitor, partial curve, poor fit]
Cc1ccc(Cn2c(NCCc3ccccc3)nc3c2c(=O)n(C)c(=O)n3C)cc1 56.2 µM [inhibitor, partial curve]
CCN(CC)c1nc(C)c(C(=S)Nc2cc([N+](=O)[O-])ccc2Cl)s1 44.7 µM [inhibitor, partial curve]
c1cncc(-c2nc(-c3ccco3)cs2)c1 79.4 µM [inhibitor, partial curve]
COC(=O)C(C#N)C(=C1C(=O)CC(C)(C)CC1=O)c1ccc(O)cc1 (configuration not stated) 79.4 µM [inhibitor, single point]
CCOc1ccc(-c2cccc(NS(=O)(=O)c3cc([N+](=O)[O-])ccc3C)c2)nn1 56.2 µM [inhibitor, partial curve]
Cc1ccc(S(=O)(=O)c2nnn3c2nc(NCc2cccs2)c2sccc23)cc1 17.8 µM [inhibitor, single point]
COc1ccc(N2CCN(Cc3nc4ccccc4c(=O)[nH]3)CC2)cc1 56.2 µM [inhibitor, partial curve]
Cc1cc(C)cc(OCc2cc(=O)n3c(-c4ccccc4)csc3n2)c1 100 µM [inhibitor, single point]
COc1cc(C2(c3ccc(O)c(OC)c3)C(=O)Nc3c(Br)cc(Br)cc32)ccc1O 56.2 µM [inhibitor, partial curve]
COc1ccc(NC(=O)O/N=C/c2ccc(N(C)C)cc2)cc1 31.6 µM [inhibitor, full curve]
COc1cccc(N2CCN(C(=O)CCNS(=O)(=O)c3ccc(F)c(F)c3)CC2)c1 56.2 µM [inhibitor, partial curve]
O=C(/C=C/c1ccccc1)N1CCN(c2c(Cl)cccc2[N+](=O)[O-])CC1 28.2 µM [inhibitor, partial curve]
COc1ccc(/C=C\C(=O)O[C@@H]2C(O)C(O[C@@H]3OC(C)[C@H](O[C@@H]4OCC(O[C@H]5O[C@H](CO)[C@@H](O)C(O)C5O)C(O)C4O)C(O)C3O)[C@H](OC(=O)[C@]34CCC(C)(C)C[C@@H]3C3=CCC5[C@@]6(C)CC(O)C(O[C@@H]7OC(CO)C(O)[C@H](O)[C@H]7O)[C@@](C)(C(=O)O)C6CC[C@@]5(C)[C@]3(CO)CC4)O[C@H]2C)cc1 (some centres not stated) 79.4 µM [inhibitor, partial curve]
COc1ccc(-c2[nH]ncc2-c2ccc3c(c2)OCCO3)c(O)c1 35.5 µM [inhibitor, partial curve, poor fit]
CN(CC(=O)Nc1ccc(F)cc1)C(=O)CSc1ncccn1 28.2 µM [inhibitor, single point]
COC(=O)C1=C(C)N(Cc2ccccc2)C(=NCc2ccco2)N[C@H]1c1cccc(F)c1 15.8 µM [inhibitor, full curve, poor fit]

Activity change, negative = inhibition, inconclusive:
COc1cccc(/C=N/NC(N)=S)c1OCc1cccc(Cl)c1 -36.2% [inhibitor]
